Data published in PMC9068801.
No constants are given. Whether binding was seen depends on the method and setting. Some binding calls cover weakened binding; strength is not graded here. Where a sequence is shown, tags or fusion partners need not be part of it.

Amino acid sequences for entries named in this document (tags omitted).
UniProt Q9LR78: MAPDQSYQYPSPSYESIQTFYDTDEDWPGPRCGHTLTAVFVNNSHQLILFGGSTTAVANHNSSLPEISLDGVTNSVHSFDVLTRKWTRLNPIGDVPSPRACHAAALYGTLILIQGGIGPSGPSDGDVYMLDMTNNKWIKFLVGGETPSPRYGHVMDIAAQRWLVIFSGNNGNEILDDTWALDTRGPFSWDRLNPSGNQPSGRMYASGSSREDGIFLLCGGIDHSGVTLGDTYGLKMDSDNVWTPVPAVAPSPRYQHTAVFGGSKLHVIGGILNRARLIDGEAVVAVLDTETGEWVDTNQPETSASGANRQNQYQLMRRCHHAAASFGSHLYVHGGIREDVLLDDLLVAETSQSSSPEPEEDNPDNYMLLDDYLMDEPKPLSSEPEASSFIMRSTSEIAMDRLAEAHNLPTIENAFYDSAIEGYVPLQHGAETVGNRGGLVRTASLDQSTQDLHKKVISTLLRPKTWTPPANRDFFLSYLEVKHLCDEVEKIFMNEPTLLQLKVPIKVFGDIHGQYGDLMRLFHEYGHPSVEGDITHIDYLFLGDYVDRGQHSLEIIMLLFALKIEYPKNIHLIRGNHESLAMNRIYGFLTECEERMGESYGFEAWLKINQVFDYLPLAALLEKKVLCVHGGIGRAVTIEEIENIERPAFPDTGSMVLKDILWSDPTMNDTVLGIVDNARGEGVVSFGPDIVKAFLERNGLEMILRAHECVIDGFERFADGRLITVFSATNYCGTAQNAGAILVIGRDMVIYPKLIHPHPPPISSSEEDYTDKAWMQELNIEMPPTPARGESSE

T1: BSL1 (BSU1-like 1 Ser/Thr protein phosphatase), Gal4 DNA-binding domain fusion (Arabidopsis thaliana) (UniProt Q8L7U5)
T1 sequence: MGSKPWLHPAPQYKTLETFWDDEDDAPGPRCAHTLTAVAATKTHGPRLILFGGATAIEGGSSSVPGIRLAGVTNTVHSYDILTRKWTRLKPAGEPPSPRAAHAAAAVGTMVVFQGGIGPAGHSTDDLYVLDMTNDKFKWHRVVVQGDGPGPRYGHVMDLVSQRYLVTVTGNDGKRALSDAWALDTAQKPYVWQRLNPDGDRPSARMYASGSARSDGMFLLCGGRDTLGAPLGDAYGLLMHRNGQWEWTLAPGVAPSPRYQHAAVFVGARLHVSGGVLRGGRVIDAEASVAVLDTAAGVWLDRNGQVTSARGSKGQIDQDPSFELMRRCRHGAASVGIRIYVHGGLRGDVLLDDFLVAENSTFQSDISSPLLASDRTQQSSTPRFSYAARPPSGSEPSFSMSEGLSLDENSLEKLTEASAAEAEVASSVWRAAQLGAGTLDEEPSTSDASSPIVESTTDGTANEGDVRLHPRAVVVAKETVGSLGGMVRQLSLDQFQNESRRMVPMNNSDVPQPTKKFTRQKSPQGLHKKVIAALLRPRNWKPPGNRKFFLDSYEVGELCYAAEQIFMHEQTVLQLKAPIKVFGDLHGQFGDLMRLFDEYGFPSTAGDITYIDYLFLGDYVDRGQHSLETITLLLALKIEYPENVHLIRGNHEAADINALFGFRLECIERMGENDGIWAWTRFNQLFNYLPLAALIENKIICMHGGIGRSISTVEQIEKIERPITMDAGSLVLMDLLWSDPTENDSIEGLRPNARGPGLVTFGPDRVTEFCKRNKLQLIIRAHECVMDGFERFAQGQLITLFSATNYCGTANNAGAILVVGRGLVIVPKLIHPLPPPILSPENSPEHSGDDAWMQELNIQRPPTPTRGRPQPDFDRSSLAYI

T2: BSL2 (BSU1-like 2 Ser/Thr protein phosphatase), Gal4 DNA-binding domain fusion (Arabidopsis thaliana) (UniProt Q9SJF0)
T2 sequence: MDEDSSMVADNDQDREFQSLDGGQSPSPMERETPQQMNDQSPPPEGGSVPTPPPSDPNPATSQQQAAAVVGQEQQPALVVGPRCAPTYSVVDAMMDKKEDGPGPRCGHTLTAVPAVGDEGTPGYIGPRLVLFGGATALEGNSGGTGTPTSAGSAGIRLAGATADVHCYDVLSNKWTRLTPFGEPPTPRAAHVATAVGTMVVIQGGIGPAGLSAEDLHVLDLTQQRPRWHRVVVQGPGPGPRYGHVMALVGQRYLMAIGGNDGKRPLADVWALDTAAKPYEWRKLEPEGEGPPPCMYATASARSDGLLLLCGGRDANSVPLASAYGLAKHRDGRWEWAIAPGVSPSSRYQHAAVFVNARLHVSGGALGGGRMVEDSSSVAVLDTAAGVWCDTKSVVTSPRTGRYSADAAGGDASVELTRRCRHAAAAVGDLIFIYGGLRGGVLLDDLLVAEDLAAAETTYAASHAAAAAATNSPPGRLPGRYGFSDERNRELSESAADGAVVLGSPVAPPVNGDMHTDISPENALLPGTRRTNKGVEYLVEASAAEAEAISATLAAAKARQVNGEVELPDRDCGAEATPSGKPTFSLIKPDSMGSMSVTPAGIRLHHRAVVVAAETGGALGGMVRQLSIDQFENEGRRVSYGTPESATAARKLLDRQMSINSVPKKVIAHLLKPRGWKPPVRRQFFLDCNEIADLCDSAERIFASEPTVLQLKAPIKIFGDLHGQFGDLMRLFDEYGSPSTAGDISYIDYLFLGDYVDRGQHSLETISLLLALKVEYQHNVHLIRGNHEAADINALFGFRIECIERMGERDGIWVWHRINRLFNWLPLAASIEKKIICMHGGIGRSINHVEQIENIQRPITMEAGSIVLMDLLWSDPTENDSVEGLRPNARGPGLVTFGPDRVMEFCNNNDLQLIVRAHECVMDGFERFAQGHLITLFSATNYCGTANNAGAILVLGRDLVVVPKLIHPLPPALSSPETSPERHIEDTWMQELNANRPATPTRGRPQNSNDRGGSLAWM

T3: BSL3 (BSU1-like 3 Ser/Thr protein phosphatase), Gal4 DNA-binding domain fusion (Arabidopsis thaliana) (UniProt Q9SHS7)
T3 sequence: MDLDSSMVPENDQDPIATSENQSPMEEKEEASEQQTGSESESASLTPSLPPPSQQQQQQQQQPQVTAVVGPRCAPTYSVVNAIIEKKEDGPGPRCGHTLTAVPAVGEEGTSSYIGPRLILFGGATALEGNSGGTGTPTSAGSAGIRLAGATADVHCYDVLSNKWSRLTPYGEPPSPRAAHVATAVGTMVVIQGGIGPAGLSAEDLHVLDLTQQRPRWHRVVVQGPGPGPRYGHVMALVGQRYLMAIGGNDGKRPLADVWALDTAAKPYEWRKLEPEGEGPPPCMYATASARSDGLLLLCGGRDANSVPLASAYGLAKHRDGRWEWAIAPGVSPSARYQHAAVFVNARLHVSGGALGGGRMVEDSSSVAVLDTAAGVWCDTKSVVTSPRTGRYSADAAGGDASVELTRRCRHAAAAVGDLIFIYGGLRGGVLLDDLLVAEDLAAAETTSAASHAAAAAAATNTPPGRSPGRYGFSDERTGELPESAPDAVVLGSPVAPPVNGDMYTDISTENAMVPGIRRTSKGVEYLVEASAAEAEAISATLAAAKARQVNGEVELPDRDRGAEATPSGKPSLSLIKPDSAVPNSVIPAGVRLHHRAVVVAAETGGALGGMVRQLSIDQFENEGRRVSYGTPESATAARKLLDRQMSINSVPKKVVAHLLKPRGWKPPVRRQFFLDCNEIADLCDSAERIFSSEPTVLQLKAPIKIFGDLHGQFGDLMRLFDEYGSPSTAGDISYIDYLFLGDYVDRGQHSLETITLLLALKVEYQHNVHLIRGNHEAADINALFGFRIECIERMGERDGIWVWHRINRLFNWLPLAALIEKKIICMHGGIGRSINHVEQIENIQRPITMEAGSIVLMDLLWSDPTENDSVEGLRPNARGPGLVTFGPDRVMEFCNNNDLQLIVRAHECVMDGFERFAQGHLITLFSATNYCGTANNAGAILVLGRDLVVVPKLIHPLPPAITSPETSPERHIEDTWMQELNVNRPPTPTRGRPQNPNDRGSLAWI

B1: ICE1/SCREAM (SCRM), Gal4 activation domain fusion (protein, UniProt Q9LSE2 1-494)
chain: MGLDGNNGGGVWLNGGGGEREENEEGSWGRNQEDGSSQFKPMLEGDWFSSNQPHPQDLQMLQNQPDFRYFGGFPFNPNDNLLLQHSIDSSSSCSPSQAFSLDPSQQNQFLSTNNNKGCLLNVPSSANPFDNAFEFGSESGFLNQIHAPISMGFGSLTQLGNRDLSSVPDFLSARSLLAPESNNNNTMLCGGFTAPLELEGFGSPANGGFVGNRAKVLKPLEVLASSGAQPTLFQKRAAMRQSSGSKMGNSESSGMRRFSDDGDMDETGIEVSGLNYESDEINESGKAAESVQIGGGGKGKKKGMPAKNLMAERRRRKKLNDRLYMLRSVVPKISKMDRASILGDAIDYLKELLQRINDLHNELESTPPGSLPPTSSSFHPLTPTPQTLSCRVKEELCPSSLPSPKGQQARVEVRLREGRAVNIHMFCGRRPGLLLATMKALDNLGLDVQQAVISCFNGFALDVFRAEQCQEGQEILPDQIKAVLFDTAGYAGMI
B2: MAPKK 5 (MKK5), Gal4 activation domain fusion (enzyme, UniProt Q8RXG3 1-348)
chain: MKPIQSPSGVASPMKNRLRKRPDLSLPLPHRDVALAVPLPLPPPSSSSSAPASSSAISTNISAAKSLSELERVNRIGSGAGGTVYKVIHTPTSRPFALKVIYGNHEDTVRRQICREIEILRSVDHPNVVKCHDMFDHNGEIQVLLEFMDQGSLEGAHIWQEQELADLSRQILSGLAYLHRRHIVHRDIKPSNLLINSAKNVKIADFGVSRILAQTMDPCNSSVGTIAYMSPERINTDLNHGRYDGYAGDVWSLGVSILEFYLGRFPFAVSRQGDWASLMCAICMSQPPEAPATASQEFRHFVSCCLQSDPPKRWSAQQLLQHPFILKATGGPNLRQMLPPPRPLPSAS
B3: MAPK 3 (MPK3), Gal4 activation domain fusion (enzyme, UniProt Q39023 1-370)
chain: MNTGGGQYTDFPAVETHGGQFISYDIFGSLFEITSKYRPPIIPIGRGAYGIVCSVLDTETNELVAMKKIANAFDNHMDAKRTLREIKLLRHLDHENIIAIRDVVPPPLRRQFSDVYISTELMDTDLHQIIRSNQSLSEEHCQYFLYQLLRGLKYIHSANIIHRDLKPSNLLLNANCDLKICDFGLARPTSENDFMTEYVVTRWYRAPELLLNSSDYTAAIDVWSVGCIFMELMNRKPLFPGKDHVHQMRLLTELLGTPTESDLGFTHNEDAKRYIRQLPNFPRQPLAKLFSHVNPMAIDLVDRMLTFDPNRRITVEQALNHQYLAKLHDPNDEPICQKPFSFEFEQQPLDEEQIKEMIYQEAIALNPTYG
B4: … (SPCH), Gal4 activation domain fusion (protein, UniProt Q700C7 1-364)
chain: MQEIIPDFLEECEFVDTSLAGDDLFAILESLEGAGEISPTAASTPKDGTTSSKELVKDQDYENSSPKRKKQRLETRKEEDEEEEDGDGEAEEDNKQDGQQKMSHVTVERNRRKQMNEHLTVLRSLMPCFYVKRGDQASIIGGVVEYISELQQVLQSLEAKKQRKTYAEVLSPRVVPSPRPSPPVLSPRKPPLSPRINHHQIHHHLLLPPISPRTPQPTSPYRAIPPQLPLIPQPPLRSYSSLASCSSLGDPPPYSPASSSSSPSVSSNHESSVINELVANSKSALADVEVKFSGANVLLKTVSHKIPGQVMKIIAALEDLALEILQVNINTVDETMLNSFTIKIGIECQLSAEELAQQIQQTFC
B5: MAPKK 4 (MKK4), Gal4 activation domain fusion (enzyme, UniProt O80397 1-366)
chain: MRPIQSPPGVSVPVKSRPRRRPDLTLPLPQRDVSLAVPLPLPPTSGGSGGSSGSAPSSGGSASSTNTNSSIEAKNYSDLVRGNRIGSGAGGTVYKVIHRPSSRLYALKVIYGNHEETVRRQICREIEILRDVNHPNVVKCHEMFDQNGEIQVLLEFMDKGSLEGAHVWKEQQLADLSRQILSGLAYLHSRHIVHRDIKPSNLLINSAKNVKIADFGVSRILAQTMDPCNSSVGTIAYMSPERINTDLNQGKYDGYAGDIWSLGVSILEFYLGRFPFPVSRQGDWASLMCAICMSQPPEAPATASPEFRHFISCCLQREPGKRRSAMQLLQHPFILRASPSQNRSPQNLHQLLPPPRPLSSSSSPTT

Target: T1, BSL1 (BSU1-like 1 Ser/Thr protein phosphatase), Gal4 DNA-binding domain fusion (Arabidopsis thaliana)
Test: two-hybrid; Gal4 system in S. cerevisiae AH109; BSL proteins as bait in pGBKT7 (BD-), partners as prey in pGADT7 (AD-); tested on SD/-Leu/-Trp/-His with 1 mM 3-AT; 3 days at 30 °C

binding | Binder
no binding | B1
no binding | B2
no binding | B3
no binding | B4
no binding | B5

Target: T2, BSL2 (BSU1-like 2 Ser/Thr protein phosphatase), Gal4 DNA-binding domain fusion (Arabidopsis thaliana)
Test: as above

binding | Binder
no binding | B1
no binding | B2
binds | B3
no binding | B4
no binding | B5

Target: T3, BSL3 (BSU1-like 3 Ser/Thr protein phosphatase), Gal4 DNA-binding domain fusion (Arabidopsis thaliana)
Test: as above

binding | Binder
no binding | B1
no binding | B2
binds | B3
no binding | B4
no binding | B5

Target: BSU1 (bri1 Suppressor 1) phosphatase, Gal4 DNA-binding domain fusion (Arabidopsis thaliana) (UniProt Q9LR78)
Test: as above

binding | Binder
no binding | B1
no binding | B2
binds | B3
no binding | B4
no binding | B5
